From PubChem BioAssay AID1030 (National Center for Advancing Translational Sciences (NCATS), 2008)
Several values for one entry are separate records, joined by “and”; a condition that tells them apart may be missing. Identical values can stand only once. Screen size: about 220,000 compounds; about 16,000 (7.3%) were called active. The inconclusive results got no clear call from the source; some entries with a clear call stand among them for comparison. The call rests on the fitted dose curve; in most records, active means well fitted inhibition curve with a large enough effect (not every such curve was filed as active); inconclusive means small, poorly fitted or top-dose-only effect, or another doubt; inactive means no such curve, though single readings can be large or run the other way. Potencies beside an inconclusive call are fits to weak or partial responses and may not hold up.
Potency means the concentration at half of the fitted maximal effect; tags describe the fitted curve by direction and shape.
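Wherever activity, negative = inhibition is given: plate controls were no enzyme wells and a reference inhibitor.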

Each compound was assayed against Aldehyde dehydrogenase 1A1 (Homo sapiens) (UniProt P00352) (assay: qHTS Assay for Inhibitors of Aldehyde Dehydrogenase 1 (ALDH1A1)). Conditions: Purified ALDH1A1, NADH fluorescence, propionaldehyde substrate; series mostly up to 75.3 µM; activity, negative = inhibition: at the top concentration.
UniProt P00352, sequence (P00352 whole entry, looked up): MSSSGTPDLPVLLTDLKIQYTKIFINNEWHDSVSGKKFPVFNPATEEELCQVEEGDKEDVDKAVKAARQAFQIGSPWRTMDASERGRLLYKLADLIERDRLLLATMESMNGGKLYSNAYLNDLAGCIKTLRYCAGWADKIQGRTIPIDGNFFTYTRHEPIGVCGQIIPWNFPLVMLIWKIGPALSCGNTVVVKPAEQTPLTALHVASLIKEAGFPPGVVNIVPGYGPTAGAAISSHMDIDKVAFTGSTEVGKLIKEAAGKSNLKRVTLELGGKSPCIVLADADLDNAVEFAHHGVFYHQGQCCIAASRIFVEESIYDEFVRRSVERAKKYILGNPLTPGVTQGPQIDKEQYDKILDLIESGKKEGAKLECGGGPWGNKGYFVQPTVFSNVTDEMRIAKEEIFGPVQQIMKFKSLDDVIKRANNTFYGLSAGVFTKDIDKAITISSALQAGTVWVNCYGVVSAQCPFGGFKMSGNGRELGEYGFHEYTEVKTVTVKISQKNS
For `CCCNC(=O)CCCCn1c(=S)[nH]c2c([nH]c3ccc(OC)cc32)c1=O`, the “activity, negative = inhibition” value was inactive: 0.307%.
For `O=c1c(-c2ccccc2)coc2c(CN3CCCC3)c(O)ccc12`, the Potency was inconclusive: 25.1 µM [inhibitor, partial curve].
With `CCCn1c(SCC(=O)NCc2ccc(Cl)cc2)n[nH]c1=O` the “activity, negative = inhibition” value was inactive: 0.0996%.
With `COc1ccc(OC)c(/C=N/N=C2\SCC(=O)N2Cc2ccco2)c1` the Potency was active: 5.01 µM.
In the case of `COc1ccc(C(=O)NN(C)c2nc(-c3ccccc3)cc(C)c2S(C)(=O)=O)cc1`, the Potency is reported as inconclusive: 1.41 µM [inhibitor, partial curve].
In the case of `Cc1ccc(O)c(NC2=C(Cl)C(=O)N(Cc3ccccc3)C2=O)c1`, the Potency is reported as active: 2.82 µM.
`COc1cccc(Nc2nc(-c3cccs3)nc3ccccc23)c1` was tested, and the Potency was inconclusive: 35.5 µM [inhibitor, single point].
With `Cc1cccc(COCC(Cc2ccccc2)N2CCN(C(=O)c3cccc(C)c3)CCC2=O)c1` (stereo not drawn) the Potency was inconclusive: 44.7 µM [inhibitor, single point].
`O=C(Nc1nnc(-c2ccccc2)o1)NC1CCCCC1` was tested, and the Potency was inconclusive: 31.6 µM [inhibitor, single point].
With `CC(=O)c1cc(-c2ccc(F)cc2)n(CCC(=O)Nc2cccc(C)n2)c1C` the “activity, negative = inhibition” value was inactive: -10%.
With `CCOc1ccc(S(=O)(=O)NCCSc2ccccc2)cc1` the Potency was active: 6.31 µM.
`C=CCN(CC=C)C(=S)NC(=O)c1ccc(-c2ccccc2)cc1` was tested, and the Potency was inconclusive: 39.8 µM [inhibitor, single point].
With `Cc1ccc(N2CS(=O)(=O)/C(=C/N(C)C)C2=O)cc1` the “activity, negative = inhibition” value was inactive: -1.62%.
In the case of `CCN(CC)c1ccc(NC(=O)Cn2cc3c(n2)CCC(C)C3)c(C)c1` (stereo not drawn), the Potency is reported as inconclusive: 1.58 µM [inhibitor, full curve, poor fit].
For `COc1ccc(Oc2ncc3nc(-c4ccc(OC)cc4)c(=O)n(C4CC4)c3n2)cc1`, the Potency was inconclusive: 35.5 µM [inhibitor, partial curve].
For `O=C(CCN1C(=O)C2C3C=CC(C3)C2C1=O)N1CCN(c2ccccc2F)CC1` (stereo not drawn), the Potency was inconclusive: 44.7 µM [inhibitor, single point].
In the case of `CC1CC1C(=O)OCC(=O)NCc1ccccc1Cl` (stereo not drawn), the Potency is reported as inconclusive: 28.2 µM [inhibitor, single point].
In the case of `CC1C(c2ccccc2)C(C#N)(C#N)C2(C#N)C(=O)NC1(N)C2C` (stereo not drawn), the Potency is reported as inconclusive: 20 µM [inhibitor, partial curve].
In the case of `CC(=C1C(=O)c2ccccc2C1=O)N1CCN(c2ccc(F)cc2)CC1`, the Potency is reported as active: 17.8 µM.
`O=C1c2ccccc2C(=O)N1c1nc(-c2cccs2)cs1` was tested, and the Potency was inconclusive: 39.8 µM [inhibitor, single point].
With `O=C(O)C1C2C=CC(C2)C1C(=O)NCc1ccc(Cl)c(Cl)c1` (stereo not drawn) the Potency was inconclusive: 17.8 µM [inhibitor, partial curve].
For `CCOc1ccc(N2CC(C(=O)OC)CC2=O)cc1` (stereo not drawn), the “activity, negative = inhibition” value was inactive: 15.8%.
With `O=c1[nH]c2ccc(S(=O)(=O)N3CCN(Cc4ccccc4)CC3)cc2[nH]c1=O` the Potency was inconclusive: 39.8 µM [inhibitor, single point].
In the case of `COc1ccc(OCCNC(=O)c2ccccc2OCC(=O)N2CCCCC2)cc1`, the Potency is reported as active: 3.55 µM.
With `CCc1[nH]c(=O)c(C#N)c2c1CCCC2` the Potency was inconclusive: 35.5 µM [inhibitor, single point].
In the case of `CC(C)Cc1ccc(/C=C/C(=O)NC2CC2)cc1`, the “activity, negative = inhibition” value is reported as inactive: 4.62%.
`Cc1cccc(NCc2n[nH]c(=S)n2-c2ccccc2)c1` was tested, and the Potency was inconclusive: 22.4 µM [inhibitor, single point].
For `COC(=O)c1sc(S(=O)(=O)NCC(=O)O)c(C(=O)OC)c1C`, the “activity, negative = inhibition” value was inactive: -2.72%.
For `CSc1ccccc1C(=O)Nc1cccc(N(C)S(C)(=O)=O)c1`, the Potency was inconclusive: 22.4 µM [inhibitor, partial curve].
`O=C(CSc1ccc2nnc(-c3ccc(F)cc3)n2n1)N1CCCc2ccccc21` was tested, and the Potency was active: 14.1 µM.
In the case of `COc1cccc(-c2cc(C(=O)Nc3c(C)n(C)n(-c4ccccc4)c3=O)no2)c1`, the Potency is reported as inconclusive: 35.5 µM [inhibitor, single point].
In the case of `Fc1ccc(/C=N/Nc2nnnn2-c2ccccc2)cc1`, the Potency is reported as inconclusive: 7.94 µM [inhibitor, full curve].
With `O=C(NCc1ccccn1)C1CCN(C(=O)c2cc3sccc3n2Cc2ccc(F)cc2)CC1` the Potency was inconclusive: 22.4 µM [inhibitor, partial curve].
For `O=C(O)c1ccc(S(=O)(=O)N(Cl)Cl)cc1`, the Potency was inconclusive: 39.8 µM [inhibitor, single point] and inconclusive: 37.7 µM [inhibitor, single point].
`CC(C)CNC(=O)c1noc2c1CCCC2` was tested, and the “activity, negative = inhibition” value was inactive: -1.8%.
`Cc1cccc(C)c1NC(=O)COC(=O)c1ccc([N+](=O)[O-])o1` was tested, and the “activity, negative = inhibition” value was inactive: 3.99%.
In the case of `COC(=O)C1C(=O)/C(=C/N(C)C)C(=O)CC1(C)C` (stereo not drawn), the “activity, negative = inhibition” value is reported as inactive: -15.6%.
With `CCc1ccc(N(C(=O)c2csnn2)C(C(=O)NC(C)(C)C)c2cccnc2)cc1` (stereo not drawn) the Potency was active: 12.6 µM.
`CCc1nnc(NC(=O)C2Cc3ccccc3CN2S(=O)(=O)c2ccc(C)cc2)s1` (stereo not drawn) was tested, and the Potency was inconclusive: 25.1 µM [inhibitor, single point].
For `O=C(CSc1nnc2ccccn12)Nc1ccc(S(=O)(=O)N2CCOCC2)cc1`, the Potency was active: 25.1 µM.
For `COc1ccccc1NC(=O)CSc1nnc(C2CCCCC2)n1C`, the Potency was inconclusive: 35.5 µM [inhibitor, single point].
With `CCOC(=O)c1c(NC(=O)CSc2nnc(C)c(=O)[nH]2)sc2c1CCC2` the Potency was inconclusive: 22.4 µM [inhibitor, single point].
In the case of `COC(=O)Cc1c(C)c2ccc(OC(=O)c3ccccc3)cc2oc1=O`, the Potency is reported as inconclusive: 31.6 µM [inhibitor, partial curve].
`O=C(CSCc1ccccc1)N/N=C/c1ccc(OCC(=O)N2CCCCC2)cc1` was tested, and the “activity, negative = inhibition” value was inactive: -17.2%.
`O=c1c2ccccc2nc(/C=C/c2ccc([N+](=O)[O-])o2)n1CCCO` was tested, and the Potency was inconclusive: 35.5 µM [inhibitor, single point].
In the case of `CN=c1scc(-c2c[nH]c3ccccc23)n1C`, the Potency is reported as inconclusive: 39.8 µM [inhibitor, single point].
For `COc1ccc(C(=O)c2ccc(Cl)c([N+](=O)[O-])c2)cc1`, the Potency was inconclusive: 28.2 µM [inhibitor, partial curve].
For `COc1ccccc1NC(=O)C(C)NS(=O)(=O)c1ccccc1` (stereo not drawn), the Potency was inconclusive: 22.4 µM [inhibitor, single point].
In the case of `CCOC(=O)C1CCCN(C(c2ccccn2)c2c(C)[nH]c3ccccc23)C1` (stereo not drawn), the Potency is reported as inconclusive: 39.8 µM [inhibitor, single point].
In the case of `COc1cc(C(C[N+](=O)[O-])c2c(-c3ccccc3)cc3ccccn23)cc(OC)c1OC` (stereo not drawn), the Potency is reported as active: 3.55 µM.
In the case of `O=S(=O)(c1ccc2ccccc2c1)n1cnc2ccccc21`, the Potency is reported as inconclusive: 39.8 µM [inhibitor, single point].
For `O=C(Cc1ccc2c(c1)CCCC2)Nc1ccccc1Cl`, the Potency was active: 12.6 µM.
In the case of `O=C(Oc1ccccc1C(=O)O)c1ccccc1O`, the Potency is reported as inconclusive: 35.5 µM [inhibitor, single point].
With `Cc1cccc(NC(=O)CN(c2ccc(F)cc2)S(C)(=O)=O)c1` the Potency was inconclusive: 39.8 µM [inhibitor, single point].
For `Cc1ccccc1Oc1ncnc2oc(-c3ccccc3)cc12`, the Potency was inconclusive: 39.8 µM [inhibitor, single point].
In the case of `CCCc1cc(=O)oc2cc(OCC(=O)Nc3cc(C)on3)ccc12`, the Potency is reported as inconclusive: 15.8 µM [inhibitor, partial curve].
With `Cc1cccc(-n2ccnc2SCC(=O)N2CCCc3ccccc32)c1C` the Potency was inconclusive: 44.7 µM [inhibitor, single point].
With `CCCCC(=O)NC(=S)NNC(=O)CC` the Potency was active: 22.4 µM.
In the case of `CC(=O)Oc1ccc(C)cc1N1C(=O)c2ccc(C(=O)O)cc2C1=O`, the “activity, negative = inhibition” value is reported as inactive: 2.51%.
`COc1ccc(-c2nnc(SCC#N)o2)cc1` was tested, and the Potency was inconclusive: 39.8 µM [inhibitor, single point].
In the case of `O=C(Nc1cccc(-c2nnc(-c3ccco3)o2)c1)C(c1ccccc1)c1ccccc1`, the Potency is reported as inconclusive: 20 µM [inhibitor, partial curve].
In the case of `CSc1ccc(/C=N/N2CCN(Cc3ccccc3Cl)CC2)cc1`, the “activity, negative = inhibition” value is reported as inactive: 3.55%.
`CCOC(=O)C1CCCN(Cc2ccccc2Cl)C1` (stereo not drawn) was tested, and the Potency was inconclusive: 20 µM [inhibitor, partial curve].
In the case of `O=C(O)C1CCCCC1C(=O)NCCc1c[nH]c2ccccc12` (stereo not drawn), the “activity, negative = inhibition” value is reported as inactive: -13%.
`N#CC1(c2ccccc2)CCCN1C(=O)c1ccc(Br)cc1` (stereo not drawn) was tested, and the “activity, negative = inhibition” value was inactive: -7.04%.
With `Cc1cc(C)c2c(-n3cccc3)c(NC(=O)OCc3ccccc3)sc2n1` the “activity, negative = inhibition” value was inactive: 5.3%.
With `COc1ccc(CCNC(=O)c2cccc(S(=O)(=O)N3CCCCC3)c2)cc1` the Potency was inconclusive: 12.6 µM [inhibitor, partial curve].
`CCOc1ccc(N2C(=O)CC(Sc3nccc(C)n3)C2=O)cc1` (stereo not drawn) was tested, and the Potency was inconclusive: 28.2 µM [inhibitor, single point].
For `O=C(N/N=C/c1ccc2cccc(OCc3ccccc3)c2n1)c1ccc(Cl)cc1`, the Potency was inconclusive: 31.6 µM [inhibitor, partial curve].
`Cc1ccc2nc(NC(=O)c3ccc4ncsc4c3)sc2c1` was tested, and the Potency was inconclusive: 35.5 µM [inhibitor, single point].
`CCN(CC)CCNc1ccc2nnc(CCNS(=O)(=O)c3ccc(C)cc3)n2n1` was tested, and the “activity, negative = inhibition” value was inactive: 10.3%.
In the case of `CC(=O)Nc1ccc(C(=O)Nc2nc(-c3cccnc3)cs2)cc1`, the Potency is reported as active: 10 µM.
With `Cc1c(C(=O)N2CCN(C(=O)c3ccco3)CC2)sc2nc(-c3ccc(F)cc3)cn12` the “activity, negative = inhibition” value was inactive: -3.32%.
